Reference: paper PMC8719716
Results are given in words; binding and its absence hold for the method and conditions named. In cells and extracts the contact can be indirect. Some results given as binding are weak or reduced against the parent protein; the word gives no strength. Where a sequence is shown, tags or fusion partners need not be part of it.

T1: X. laevis CEP97, V5-tagged (X. laevis) (UniProt Q6GPJ8)
T1 sequence: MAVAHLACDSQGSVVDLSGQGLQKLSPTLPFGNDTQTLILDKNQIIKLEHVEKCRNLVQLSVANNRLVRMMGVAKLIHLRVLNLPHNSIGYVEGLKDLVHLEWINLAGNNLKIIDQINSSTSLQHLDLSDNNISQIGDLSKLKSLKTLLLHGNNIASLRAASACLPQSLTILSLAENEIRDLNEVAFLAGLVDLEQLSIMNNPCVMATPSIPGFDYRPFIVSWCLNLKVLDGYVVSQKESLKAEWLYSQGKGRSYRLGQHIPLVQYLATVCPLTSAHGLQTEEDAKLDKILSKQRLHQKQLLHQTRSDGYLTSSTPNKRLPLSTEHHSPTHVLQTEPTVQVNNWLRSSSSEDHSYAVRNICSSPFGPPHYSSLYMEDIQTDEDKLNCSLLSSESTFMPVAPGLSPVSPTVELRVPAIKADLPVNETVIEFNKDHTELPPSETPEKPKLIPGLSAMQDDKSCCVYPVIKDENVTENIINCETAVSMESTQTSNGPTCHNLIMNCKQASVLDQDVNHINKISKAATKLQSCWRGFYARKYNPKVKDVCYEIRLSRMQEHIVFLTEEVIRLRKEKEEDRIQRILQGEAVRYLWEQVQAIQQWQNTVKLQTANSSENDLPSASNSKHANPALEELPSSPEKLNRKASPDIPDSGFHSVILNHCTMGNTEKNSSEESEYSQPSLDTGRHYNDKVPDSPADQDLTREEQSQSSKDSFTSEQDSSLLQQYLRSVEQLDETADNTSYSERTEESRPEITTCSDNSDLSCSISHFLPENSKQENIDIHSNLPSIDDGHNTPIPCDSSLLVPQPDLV

T2: X. laevis CEP97 WT, exogenous, tag not named for the experiment (X. laevis) (UniProt Q6GPJ8)
T2 sequence: T1 sequence

T3: human CEP97-HA Δ577–610 (human) (UniProt Q8IW35)
T3 sequence: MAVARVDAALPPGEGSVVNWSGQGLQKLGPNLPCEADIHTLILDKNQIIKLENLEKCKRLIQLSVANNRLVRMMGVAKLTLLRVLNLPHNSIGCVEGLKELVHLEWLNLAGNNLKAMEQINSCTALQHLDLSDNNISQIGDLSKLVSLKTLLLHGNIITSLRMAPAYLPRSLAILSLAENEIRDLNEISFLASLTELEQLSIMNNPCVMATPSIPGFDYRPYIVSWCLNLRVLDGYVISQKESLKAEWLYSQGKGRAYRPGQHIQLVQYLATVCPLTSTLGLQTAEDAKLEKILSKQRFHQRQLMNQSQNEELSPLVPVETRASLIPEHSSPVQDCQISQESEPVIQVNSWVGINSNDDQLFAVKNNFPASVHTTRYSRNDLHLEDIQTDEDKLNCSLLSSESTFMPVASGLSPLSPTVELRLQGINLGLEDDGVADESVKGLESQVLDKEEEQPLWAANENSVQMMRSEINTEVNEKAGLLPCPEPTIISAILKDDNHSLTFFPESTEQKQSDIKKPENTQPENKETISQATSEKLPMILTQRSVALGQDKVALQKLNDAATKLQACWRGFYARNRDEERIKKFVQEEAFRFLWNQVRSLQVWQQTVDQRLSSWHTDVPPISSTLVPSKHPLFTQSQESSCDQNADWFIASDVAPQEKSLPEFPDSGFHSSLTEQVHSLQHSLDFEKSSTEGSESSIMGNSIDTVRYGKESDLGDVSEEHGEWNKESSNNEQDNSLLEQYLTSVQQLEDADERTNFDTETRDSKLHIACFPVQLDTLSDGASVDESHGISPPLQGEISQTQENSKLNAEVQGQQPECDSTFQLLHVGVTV

T4: human CEP97-HA WT (human) (UniProt Q8IW35)
T4 sequence: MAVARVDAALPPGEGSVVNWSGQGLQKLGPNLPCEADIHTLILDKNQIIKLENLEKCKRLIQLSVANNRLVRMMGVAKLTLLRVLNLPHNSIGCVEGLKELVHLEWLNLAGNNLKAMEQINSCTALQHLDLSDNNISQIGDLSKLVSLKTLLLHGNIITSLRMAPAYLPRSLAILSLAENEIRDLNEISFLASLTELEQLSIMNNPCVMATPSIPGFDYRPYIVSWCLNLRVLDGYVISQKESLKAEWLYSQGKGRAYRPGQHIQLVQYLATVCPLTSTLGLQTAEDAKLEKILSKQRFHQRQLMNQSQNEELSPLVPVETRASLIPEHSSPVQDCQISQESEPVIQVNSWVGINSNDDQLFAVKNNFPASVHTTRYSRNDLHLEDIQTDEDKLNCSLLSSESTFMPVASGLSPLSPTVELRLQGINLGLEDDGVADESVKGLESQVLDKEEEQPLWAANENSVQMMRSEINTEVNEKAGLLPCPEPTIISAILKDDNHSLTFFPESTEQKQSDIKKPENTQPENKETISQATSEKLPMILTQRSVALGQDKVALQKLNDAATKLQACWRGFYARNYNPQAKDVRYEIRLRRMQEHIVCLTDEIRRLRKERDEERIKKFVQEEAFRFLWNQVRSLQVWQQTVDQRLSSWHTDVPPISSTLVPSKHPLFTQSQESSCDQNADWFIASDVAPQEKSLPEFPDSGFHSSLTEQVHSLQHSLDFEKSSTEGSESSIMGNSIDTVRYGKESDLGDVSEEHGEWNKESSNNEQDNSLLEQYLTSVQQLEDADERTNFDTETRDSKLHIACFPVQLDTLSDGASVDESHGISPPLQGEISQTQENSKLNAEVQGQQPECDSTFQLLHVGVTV

B1: human Cdc20B-Flag (protein, UniProt Q86Y33 1-519)
chain: MEWKLERTAPRRVRTEEEMLWESIMRVLSKDLKQKRSQDSANVLDSVNATYSDFKSNFAKRLSAEVPVASSPITTRWQQSQTRALSSDSFGEEQSTTYLPEASGSVLKTPPEKETLTLGSRKEQLKTPSKGISETSNSALHFCKAPHAMDRDWKESVASKGQKCLKQLFVTQNVVQQANGKMQLCEQSECVWKGCKDGVRDESFHLKSSGDINDSILQPEVKIHITGLRNDYYLNILDWSFQNLVAIALGSAVYIWNGENHNGIENIDLSLTCNYISSVSWIKEGTCLAVGTSEGEVQLWDVVTKKRLRNMLGHLSVVGALSWNHFILSSGSRLGRVYHHDVRVAQHHVGTLRHKQAVCALKWSPDGRLLSSGCSDGLLTIWPHDPGASAQGQPLKVITQSTAVKAMDWCPWQSGVLAIGGGMKDGRLHILDINAGKSIQTPSTNSQICSLIWLPKTKEIATGQGTPKNDVTVWTCPTVSRSGGFFGHRGRVLHLSLSPDQTRVFSAAADGTASVWNCY
B2: human Spag5-Flag (protein, UniProt Q96R06 1-1193)
chain: MWRVKKLSLSLSPSPQTGKPSMRTPLRELTLQPGALTNSGKRSPACSSLTPSLCKLGLQEGSNNSSPVDFVNNKRTDLSSEHFSHSSKWLETCQHESDEQPLDPIPQISSTPKTSEEAVDPLGNYMVKTIVLVPSPLGQQQDMIFEARLDTMAETNSISLNGPLRTDDLVREEVAPCMGDRFSEVAAVSEKPIFQESPSHLLEESPPNPCSEQLHCSKESLSSRTEAVREDLVPSESNAFLPSSVLWLSPSTALAADFRVNHVDPEEEIVEHGAMEEREMRFPTHPKESETEDQALVSSVEDILSTCLTPNLVEMESQEAPGPAVEDVGRILGSDTESWMSPLAWLEKGVNTSVMLENLRQSLSLPSMLRDAAIGTTPFSTCSVGTWFTPSAPQEKSTNTSQTGLVGTKHSTSETEQLLCGRPPDLTALSRHDLEDNLLSSLVILEVLSRQLRDWKSQLAVPHPETQDSSTQTDTSHSGITNKLQHLKESHEMGQALQQARNVMQSWVLISKELISLLHLSLLHLEEDKTTVSQESRRAETLVCCCFDLLKKLRAKLQSLKAEREEARHREEMALRGKDAAEIVLEAFCAHASQRISQLEQDLASMREFRGLLKDAQTQLVGLHAKQEELVQQTVSLTSTLQQDWRSMQLDYTTWTALLSRSRQLTEKLTVKSQQALQERDVAIEEKQEVSRVLEQVSAQLEECKGQTEQLELENSRLATDLRAQLQILANMDSQLKELQSQHTHCAQDLAMKDELLCQLTQSNEEQAAQWQKEEMALKHMQAELQQQQAVLAKEVRDLKETLEFADQENQVAHLELGQVECQLKTTLEVLRERSLQCENLKDTVENLTAKLASTIADNQEQDLEKTRQYSQKLGLLTEQLQSLTLFLQTKLKEKTEQETLLLSTACPPTQEHPLPNDRTFLGSILTAVADEEPESTPVPLLGSDKSAFTRVASMVSLQPAETPGMEESLAEMSIMTTELQSLCSLLQESKEEAIRTLQRKICELQARLQAQEEQHQEVQKAKEADIEKLNQALCLRYKNEKELQEVIQQQNEKILEQIDKSGELISLREEVTHLTRSLRRAETETKVLQEALAGQLDSNCQPMATNWIQEKVWLSQEVDKLRVMFLEMKNEKEKLMIKFQSHRNILEENLRRSDKELEKLDDIVQHIYKTLLSIPEVVRGCKELQGLLEFLS
B3: X. laevis CEP97, V5-tagged (protein, UniProt Q6GPJ8 1-807)
chain: T1 sequence

Columns and labels:
[1] = molecular target: T1, X. laevis CEP97, V5-tagged (X. laevis); assay: co-IP; Xenopus embryos injected with mRNAs at the one-cell stage, harvested at stages 11–12, lysed in TNSG buffer (50 mM Tris-HCl pH 7.4, 150 mM NaCl, 1% NP-40, 10% glycerol) with protease and phosphatase inhibitors; anti-V5, anti-Flag M2 or anti-HA agarose, 6–8 h at 4°C; reciprocal
[2] = molecular target: T2, X. laevis CEP97 WT, exogenous, tag not named for the experiment (X. laevis); assay: as above
[3] = molecular target: T3, human CEP97-HA Δ577–610 (human); assay: co-IP; HEK293T cells transfected with human CEP97-HA and hCdc20B-Flag or hSpag5-Flag; reciprocal co-IPs
[4] = molecular target: T4, human CEP97-HA WT (human); assay: as above
[5] = molecular target: X. laevis Dyrk1a, Flag-tagged (X. laevis) (UniProt Q2TAE3); assay: co-IP; Xenopus embryos injected with mRNAs at the one-cell stage, harvested at stages 11–12, lysed in TNSG buffer (50 mM Tris-HCl pH 7.4, 150 mM NaCl, 1% NP-40, 10% glycerol) with protease and phosphatase inhibitors; anti-V5, anti-Flag M2 or anti-HA agarose, 6–8 h at 4°C; reciprocal

| Molecule | binding [3] | binding [4] | also measured |
| --- | --- | --- | --- |
| X. laevis Dyrk1a, Flag-tagged (from UniProt Q2TAE3 1-750) (enzyme) |  |  | binding [1]: binds |
| X. laevis Dyrk1a kinase-dead form (K180R) (from UniProt Q2TAE3 1-750) (enzyme) |  |  | binding [2]: binds |
| B1 | no binding | binds |  |
| B2 | no binding | binds |  |
| B3 |  |  | binding [5]: binds |
